The values that follow come from publication PMC9726891.

Chains of the proteins cited; added tags and fusions are not shown.
UniProt P06701: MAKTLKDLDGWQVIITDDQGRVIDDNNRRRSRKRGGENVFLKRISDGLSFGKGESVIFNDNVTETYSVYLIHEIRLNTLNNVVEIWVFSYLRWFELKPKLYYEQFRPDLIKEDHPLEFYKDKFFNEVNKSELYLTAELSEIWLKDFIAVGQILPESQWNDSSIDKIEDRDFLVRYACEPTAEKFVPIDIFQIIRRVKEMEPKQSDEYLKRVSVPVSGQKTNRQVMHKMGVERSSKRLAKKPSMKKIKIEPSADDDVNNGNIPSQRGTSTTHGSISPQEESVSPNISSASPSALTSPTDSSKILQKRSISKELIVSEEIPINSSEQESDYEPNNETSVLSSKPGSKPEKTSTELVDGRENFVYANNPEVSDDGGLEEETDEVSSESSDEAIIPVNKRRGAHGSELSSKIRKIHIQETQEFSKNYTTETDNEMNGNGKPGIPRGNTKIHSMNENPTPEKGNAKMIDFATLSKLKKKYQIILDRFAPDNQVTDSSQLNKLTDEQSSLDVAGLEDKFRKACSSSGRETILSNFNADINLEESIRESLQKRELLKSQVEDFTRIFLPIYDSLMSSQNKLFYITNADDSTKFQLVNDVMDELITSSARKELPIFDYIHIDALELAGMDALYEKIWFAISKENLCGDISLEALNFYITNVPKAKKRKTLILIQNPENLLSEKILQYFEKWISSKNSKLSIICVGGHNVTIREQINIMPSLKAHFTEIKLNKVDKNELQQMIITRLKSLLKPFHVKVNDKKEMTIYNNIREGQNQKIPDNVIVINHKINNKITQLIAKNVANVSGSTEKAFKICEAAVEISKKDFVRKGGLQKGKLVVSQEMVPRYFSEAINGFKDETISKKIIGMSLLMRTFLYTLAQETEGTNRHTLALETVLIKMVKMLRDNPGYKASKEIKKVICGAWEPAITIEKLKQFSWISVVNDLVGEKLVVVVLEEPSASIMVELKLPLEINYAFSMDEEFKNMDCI
UniProt P11978: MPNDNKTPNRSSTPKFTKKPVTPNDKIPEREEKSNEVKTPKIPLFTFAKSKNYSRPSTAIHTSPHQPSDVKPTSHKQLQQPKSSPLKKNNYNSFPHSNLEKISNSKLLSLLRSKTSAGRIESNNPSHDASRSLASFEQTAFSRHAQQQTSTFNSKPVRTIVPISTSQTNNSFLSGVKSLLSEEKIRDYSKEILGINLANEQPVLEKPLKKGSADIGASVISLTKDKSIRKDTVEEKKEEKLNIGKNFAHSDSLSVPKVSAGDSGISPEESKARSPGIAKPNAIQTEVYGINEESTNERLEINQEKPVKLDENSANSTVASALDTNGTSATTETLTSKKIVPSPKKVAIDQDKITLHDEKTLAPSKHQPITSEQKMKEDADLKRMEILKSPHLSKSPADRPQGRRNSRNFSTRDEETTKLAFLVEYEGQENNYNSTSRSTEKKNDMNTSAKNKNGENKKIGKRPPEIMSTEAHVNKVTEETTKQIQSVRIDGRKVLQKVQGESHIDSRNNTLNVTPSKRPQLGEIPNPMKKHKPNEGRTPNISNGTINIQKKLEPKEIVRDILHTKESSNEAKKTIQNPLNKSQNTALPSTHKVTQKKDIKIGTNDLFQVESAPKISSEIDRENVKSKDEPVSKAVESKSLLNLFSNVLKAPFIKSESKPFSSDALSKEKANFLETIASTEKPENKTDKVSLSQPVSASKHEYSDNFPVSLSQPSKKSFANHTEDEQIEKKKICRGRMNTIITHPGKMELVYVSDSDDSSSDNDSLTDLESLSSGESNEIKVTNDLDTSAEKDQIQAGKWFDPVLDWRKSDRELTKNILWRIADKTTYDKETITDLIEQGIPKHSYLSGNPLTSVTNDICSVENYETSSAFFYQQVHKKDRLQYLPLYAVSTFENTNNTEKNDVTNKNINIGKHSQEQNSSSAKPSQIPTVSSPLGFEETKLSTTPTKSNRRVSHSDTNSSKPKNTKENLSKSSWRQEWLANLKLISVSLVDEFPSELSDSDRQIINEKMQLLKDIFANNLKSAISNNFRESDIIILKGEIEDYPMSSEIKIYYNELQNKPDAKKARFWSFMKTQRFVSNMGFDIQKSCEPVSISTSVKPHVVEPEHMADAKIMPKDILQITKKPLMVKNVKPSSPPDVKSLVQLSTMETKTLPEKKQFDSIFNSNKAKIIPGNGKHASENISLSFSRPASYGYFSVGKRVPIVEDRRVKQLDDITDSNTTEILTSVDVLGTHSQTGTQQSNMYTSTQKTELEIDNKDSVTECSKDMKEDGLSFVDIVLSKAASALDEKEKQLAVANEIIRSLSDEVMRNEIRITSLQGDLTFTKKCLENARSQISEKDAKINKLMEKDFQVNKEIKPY
UniProt P06700: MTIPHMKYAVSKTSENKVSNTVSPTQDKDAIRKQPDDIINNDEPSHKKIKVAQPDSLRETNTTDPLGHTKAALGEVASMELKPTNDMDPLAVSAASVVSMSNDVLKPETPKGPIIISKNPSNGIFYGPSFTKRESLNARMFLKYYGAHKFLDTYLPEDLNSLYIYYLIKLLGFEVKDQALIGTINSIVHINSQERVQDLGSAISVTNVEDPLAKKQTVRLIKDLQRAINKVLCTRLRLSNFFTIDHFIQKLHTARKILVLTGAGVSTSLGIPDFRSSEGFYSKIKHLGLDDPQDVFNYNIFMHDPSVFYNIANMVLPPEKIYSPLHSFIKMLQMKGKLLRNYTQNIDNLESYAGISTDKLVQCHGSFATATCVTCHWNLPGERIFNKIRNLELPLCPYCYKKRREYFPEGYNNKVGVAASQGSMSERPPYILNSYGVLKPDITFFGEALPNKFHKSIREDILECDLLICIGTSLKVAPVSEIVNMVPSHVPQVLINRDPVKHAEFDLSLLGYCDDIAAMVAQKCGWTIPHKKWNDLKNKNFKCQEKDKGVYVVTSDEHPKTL
UniProt P10659: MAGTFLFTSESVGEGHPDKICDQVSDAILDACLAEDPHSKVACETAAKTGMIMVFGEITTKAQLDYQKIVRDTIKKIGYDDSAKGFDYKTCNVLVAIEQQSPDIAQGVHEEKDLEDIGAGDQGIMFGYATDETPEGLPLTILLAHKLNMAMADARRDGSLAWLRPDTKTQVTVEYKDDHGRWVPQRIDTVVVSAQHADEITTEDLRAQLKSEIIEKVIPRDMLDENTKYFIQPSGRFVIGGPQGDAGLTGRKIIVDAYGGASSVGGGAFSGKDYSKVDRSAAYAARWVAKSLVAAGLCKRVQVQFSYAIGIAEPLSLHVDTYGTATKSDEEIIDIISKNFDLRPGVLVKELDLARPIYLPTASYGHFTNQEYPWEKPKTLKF
UniProt Q04089: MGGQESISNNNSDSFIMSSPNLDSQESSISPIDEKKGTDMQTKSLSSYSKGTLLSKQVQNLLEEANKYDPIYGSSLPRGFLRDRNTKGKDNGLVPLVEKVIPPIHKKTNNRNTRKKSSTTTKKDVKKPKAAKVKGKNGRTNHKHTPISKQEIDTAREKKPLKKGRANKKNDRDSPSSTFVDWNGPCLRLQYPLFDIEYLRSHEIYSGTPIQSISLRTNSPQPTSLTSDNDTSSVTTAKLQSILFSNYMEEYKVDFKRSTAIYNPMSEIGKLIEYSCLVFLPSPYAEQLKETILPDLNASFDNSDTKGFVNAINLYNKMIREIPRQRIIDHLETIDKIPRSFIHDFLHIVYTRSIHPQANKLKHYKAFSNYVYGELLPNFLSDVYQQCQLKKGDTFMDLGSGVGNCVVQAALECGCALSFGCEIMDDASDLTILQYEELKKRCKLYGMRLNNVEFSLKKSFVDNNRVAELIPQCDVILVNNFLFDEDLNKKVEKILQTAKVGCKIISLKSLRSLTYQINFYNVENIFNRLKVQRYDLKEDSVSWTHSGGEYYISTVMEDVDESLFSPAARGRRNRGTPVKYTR

Results are given in words; binding and its absence hold for the method and conditions named. In cells and extracts the contact can be indirect. Some results given as binding are weak or reduced against the parent protein; the word gives no strength. For some of these results: Where a sequence is shown, tags or fusion partners need not be part of it.

Test [1] addresses T1, Reb1 (endogenously expressed, tag not stated) (S. cerevisiae (endogenous in yeast)) (UniProt P21538).
T1 sequence: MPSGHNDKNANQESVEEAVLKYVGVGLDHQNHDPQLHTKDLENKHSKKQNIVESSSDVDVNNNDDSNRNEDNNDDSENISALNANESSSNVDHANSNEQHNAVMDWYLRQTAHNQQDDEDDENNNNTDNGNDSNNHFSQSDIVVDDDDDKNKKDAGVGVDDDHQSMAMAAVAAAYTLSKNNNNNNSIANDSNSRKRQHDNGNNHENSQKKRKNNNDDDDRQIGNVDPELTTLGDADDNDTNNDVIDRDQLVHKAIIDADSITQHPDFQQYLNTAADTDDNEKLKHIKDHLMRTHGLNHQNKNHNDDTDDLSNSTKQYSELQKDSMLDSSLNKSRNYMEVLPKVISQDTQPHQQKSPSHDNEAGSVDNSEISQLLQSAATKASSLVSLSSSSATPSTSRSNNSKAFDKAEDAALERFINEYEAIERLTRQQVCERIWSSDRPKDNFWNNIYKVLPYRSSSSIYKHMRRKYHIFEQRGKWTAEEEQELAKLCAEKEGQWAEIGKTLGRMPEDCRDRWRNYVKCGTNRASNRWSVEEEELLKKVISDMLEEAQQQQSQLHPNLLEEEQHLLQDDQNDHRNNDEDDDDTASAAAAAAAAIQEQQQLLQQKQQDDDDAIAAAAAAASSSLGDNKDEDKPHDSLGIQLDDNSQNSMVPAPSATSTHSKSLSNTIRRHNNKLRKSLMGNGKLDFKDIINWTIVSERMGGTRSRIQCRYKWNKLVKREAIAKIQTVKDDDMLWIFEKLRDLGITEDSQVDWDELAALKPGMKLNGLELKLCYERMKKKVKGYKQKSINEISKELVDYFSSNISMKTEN
In words: co-IP; Reb1 and Sir2, Sir3, Sir4 (Supplementary Fig. 9e, f); bait and tags not given.

Test [2] addresses T2, pyruvate kinase Pyk1 (S. cerevisiae (endogenous in yeast)) (UniProt P00549).
T2 sequence: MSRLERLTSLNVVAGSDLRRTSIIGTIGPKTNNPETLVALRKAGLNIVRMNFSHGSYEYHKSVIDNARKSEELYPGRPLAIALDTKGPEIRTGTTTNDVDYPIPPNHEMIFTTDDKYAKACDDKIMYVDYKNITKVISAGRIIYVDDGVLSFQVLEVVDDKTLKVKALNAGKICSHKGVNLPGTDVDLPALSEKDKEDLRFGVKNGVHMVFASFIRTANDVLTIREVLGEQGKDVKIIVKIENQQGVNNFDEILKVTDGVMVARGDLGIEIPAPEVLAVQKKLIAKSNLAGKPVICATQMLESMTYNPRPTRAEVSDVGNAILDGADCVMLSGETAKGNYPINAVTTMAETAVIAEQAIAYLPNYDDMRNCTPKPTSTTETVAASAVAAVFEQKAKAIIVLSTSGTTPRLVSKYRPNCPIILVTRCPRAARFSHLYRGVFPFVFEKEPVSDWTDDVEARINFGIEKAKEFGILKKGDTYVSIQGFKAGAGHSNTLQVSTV
The test is described as follows: co-IP; endogenous Pyk1 immunoprecipitated with anti-Pyk1 antibody from yeast cell extract.

The target of test [3] is T3, tandem affinity purification (TAP)-tagged Reb1 (Reb1-TAP) (S. cerevisiae (endogenous in yeast)) (UniProt P21538).
T3 sequence: T1 sequence
The test is described as follows: co-IP; Reb1-TAP immunoprecipitated with calmodulin beads from MNase-digested whole cell extract; 10 mM Tris pH 8.0, 150-350 mM NaCl, 2 mM CaCl2, 0.1% NP-40, 4 h at 4 °C.

The target of test [4] is Unmodified H3 (1–23) peptide. In words: pull-down; 1.0 µg biotinylated histone peptide incubated with 0.5 ml yeast whole cell extract in 50 mM Tris-HCl pH 7.5, 250 mM NaCl, 0.1% NP-40, overnight at 4 °C; Streptavidin beads; immunoblot; only the target purified.
For test [5], the target named is T1, Reb1 (endogenously expressed, tag not stated) (S. cerevisiae (endogenous in yeast)). The test is described as follows: co-IP; Dot1 and Reb1 (Supplementary Fig. 9d); bait and tags not given.

On to “Sir3 (in yeast cell extract, tag not stated) (from UniProt P06701 1-978)”, for which the binding entry in test [1] is listed as “no binding”.
“Sir4 (in yeast cell extract, tag not stated) (from UniProt P11978 1-1358)”: the binding result in test [1] is recorded as “no binding”.
For “Sir2 (in yeast cell extract, tag not stated) (from UniProt P06700 1-562) (enzyme)”, the binding result in test [1] was “no binding”.
Turning to “Sam1 (from UniProt P10659 1-382) (enzyme)”, the binding entry in test [2] and in test [3] was “binds” throughout.
For “Dot1 (in yeast cell extract, tag not stated) (from UniProt Q04089 1-582) (enzyme)”, the figures for the binding result in test [4] and in test [5] were “binds” and “no binding”, respectively.
